# Measured values published in the supplement of paper PMC8728848.
# The other results are listed elsewhere or left out.
# Tests used:
# Assay in all cases: glycan array binding signal (z-score within array); higher = stronger binding
# Conditions in all cases: glycan notation: IUPAC condensed, linker removed
# [1] = target: Fuc(a1-2)Gal(b1-4)[Fuc(a1-3)]GlcNAc
# Summary of the method: (§1)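 Glycan array data were curated from 3228 arrays in the Consortium for Functional Glycomics database and kept only where the protein sequence was available. Glycan names were converted to IUPAC-condensed notation, and columns mapping to the same glycan were averaged. The binding signal is a within-array Z-score, averaged across arrays of the same protein sequence at different concentrations or buffers and across linkers. Negative Z-scores can be read as non-binding.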
# [2] = target: Fuc(a1-2)Gal(b1-4)[Fuc(a1-3)]GlcNAc(b1-2)Man(a1-3)[Fuc(a1-2)Gal(b1-4)[Fuc(a1-3)]GlcNAc(b1-2)Man(a1-6)]Man(b1-4)GlcNAc(b1-4)[Fuc(a1-6)]GlcNAc
# Summary of the method: as §1
# [3] = target: Fuc(a1-2)Gal(b1-4)[Fuc(a1-3)]GlcNAc(b1-2)[Fuc(a1-2)Gal(b1-4)[Fuc(a1-3)]GlcNAc(b1-4)]Man(a1-3)[Fuc(a1-2)Gal(b1-4)[Fuc(a1-3)]GlcNAc(b1-2)Man(a1-6)]Man(b1-4)GlcNAc(b1-4)GlcNAc
# Summary of the method: as §1
# [4] = target: Fuc(a1-2)Gal(b1-4)[Fuc(a1-3)]GlcNAc(b1-3)Gal(b1-4)[Fuc(a1-3)]GlcNAc
# Summary of the method: as §1
# [5] = target: Fuc(a1-2)Gal(b1-4)[Fuc(a1-3)]GlcNAc(b1-3)Gal(b1-4)[Fuc(a1-3)]GlcNAc(b1-3)Gal(b1-4)[Fuc(a1-3)]GlcNAc
# Summary of the method: as §1
# [6] = target: Fuc(a1-2)Gal(b1-4)[Fuc(a1-3)]GlcNAc(b1-3)GalNAc
# Summary of the method: as §1
# [7] = target: Fuc(a1-2)Gal(b1-4)[Fuc(a1-3)]GlcNAc(b1-3)[Neu5Ac(a2-6)Gal(b1-4)GlcNAc(b1-6)]Gal(b1-4)Glc
# Summary of the method: as §1
# [8] = target: Fuc(a1-2)Gal3S(b1-4)GlcNAc
# Summary of the method: as §1
# [9] = target: Fuc(a1-2)Gal6S(b1-3)GlcNAc
# Summary of the method: as §1
# [10] = target: Fuc(a1-2)Gal6S(b1-3)GlcNAc6S
# Summary of the method: as §1
# Fuc(a1-2)Gal6S(b1-4)Glc = target: Fuc(a1-2)Gal6S(b1-4)Glc
# Summary of the method: as §1
# [11] = target: Fuc(a1-2)Gal6S(b1-4)Glc6S
# Summary of the method: as §1
# Fuc(a1-2)[Gal(a1-3)]Gal = target: Fuc(a1-2)[Gal(a1-3)]Gal
# Summary of the method: as §1
# [12] = target: Fuc(a1-2)[Gal(a1-3)]Gal(b1-3)GalNAc
# Summary of the method: as §1
# [13] = target: Fuc(a1-2)[Gal(a1-3)]Gal(b1-3)GalNAc(b1-3)Gal(a1-4)Gal(b1-4)Glc
# Summary of the method: as §1
# [14] = target: Fuc(a1-2)[Gal(a1-3)]Gal(b1-3)GlcNAc
# Summary of the method: as §1
# [15] = target: Fuc(a1-2)[Gal(a1-3)]Gal(b1-3)GlcNAc(b1-2)Man(a1-3)[Fuc(a1-2)[Gal(a1-3)]Gal(b1-3)GlcNAc(b1-2)Man(a1-6)]Man(b1-4)GlcNAc(b1-4)GlcNAc
# Summary of the method: as §1
# [16] = target: Fuc(a1-2)[Gal(a1-3)]Gal(b1-3)GlcNAc(b1-2)Man(a1-3)[Fuc(a1-2)[Gal(a1-3)]Gal(b1-3)GlcNAc(b1-2)Man(a1-6)]Man(b1-4)GlcNAc(b1-4)[Fuc(a1-6)]GlcNAc
# Summary of the method: as §1
# [17] = target: Fuc(a1-2)[Gal(a1-3)]Gal(b1-3)GlcNAc(b1-3)GalNAc
# Summary of the method: as §1
# [18] = target: Fuc(a1-2)[Gal(a1-3)]Gal(b1-3)GlcNAc(b1-6)GalNAc
# Summary of the method: as §1
# [19] = target: Fuc(a1-2)[Gal(a1-3)]Gal(b1-4)Glc
# Summary of the method: as §1
# [20] = target: Fuc(a1-2)[Gal(a1-3)]Gal(b1-4)GlcNAc
# Summary of the method: as §1
# [21] = target: Fuc(a1-2)[Gal(a1-3)]Gal(b1-4)GlcNAc(b1-2)Man
# Summary of the method: as §1
# [22] = target: Fuc(a1-2)[Gal(a1-3)]Gal(b1-4)GlcNAc(b1-2)Man(a1-3)[Fuc(a1-2)[Gal(a1-3)]Gal(b1-4)GlcNAc(b1-2)Man(a1-6)]Man(b1-4)GlcNAc(b1-4)GlcNAc
# Summary of the method: as §1
# [23] = target: Fuc(a1-2)[Gal(a1-3)]Gal(b1-4)GlcNAc(b1-2)Man(a1-3)[Fuc(a1-2)[Gal(a1-3)]Gal(b1-4)GlcNAc(b1-2)Man(a1-6)]Man(b1-4)GlcNAc(b1-4)[Fuc(a1-6)]GlcNAc
# Summary of the method: as §1
# [24] = target: Fuc(a1-2)[Gal(a1-3)]Gal(b1-4)GlcNAc(b1-3)GalNAc
# Summary of the method: as §1
# [25] = target: Fuc(a1-2)[Gal(a1-3)]Gal(b1-4)GlcNAc(b1-3)[Fuc(a1-2)[Gal(a1-3)]Gal(b1-4)GlcNAc(b1-6)]GalNAc
# Summary of the method: as §1
# [26] = target: Fuc(a1-2)[Gal(a1-3)]Gal(b1-4)GlcNAc(b1-6)GalNAc
# Summary of the method: as §1
# [27] = target: Fuc(a1-2)[Gal(a1-3)]Gal(b1-4)[Fuc(a1-3)]Glc
# Summary of the method: as §1
# [28] = target: Fuc(a1-2)[Gal(a1-3)]Gal(b1-4)[Fuc(a1-3)]GlcNAc
# Summary of the method: as §1
# [29] = target: Fuc(a1-2)[Gal(a1-3)]Gal(b1-4)[Fuc(a1-3)]GlcNAc(b1-3)GalNAc
# Summary of the method: as §1
# [30] = target: Fuc(a1-2)[Gal(a1-4)]Gal(b1-4)GlcNAc
# Summary of the method: as §1
# [31] = target: Fuc(a1-2)[GalNAc(a1-3)]Gal
# Summary of the method: as §1
# [32] = target: Fuc(a1-2)[GalNAc(a1-3)]Gal(b1-3)GalNAc(a1-3)[Fuc(a1-2)]Gal(b1-4)GlcNAc
# Summary of the method: as §1
# [33] = target: Fuc(a1-2)[GalNAc(a1-3)]Gal(b1-3)GalNAc(b1-3)Gal(a1-4)Gal(b1-4)Glc
# Summary of the method: as §1
# [34] = target: Fuc(a1-2)[GalNAc(a1-3)]Gal(b1-3)GlcNAc
# Summary of the method: as §1
# [35] = target: Fuc(a1-2)[GalNAc(a1-3)]Gal(b1-3)GlcNAc(b1-2)Man(a1-3)[Fuc(a1-2)[GalNAc(a1-3)]Gal(b1-3)GlcNAc(b1-2)Man(a1-6)]Man(b1-4)GlcNAc(b1-4)GlcNAc
# Summary of the method: as §1
# [36] = target: Fuc(a1-2)[GalNAc(a1-3)]Gal(b1-3)GlcNAc(b1-2)Man(a1-3)[Fuc(a1-2)[GalNAc(a1-3)]Gal(b1-3)GlcNAc(b1-2)Man(a1-6)]Man(b1-4)GlcNAc(b1-4)[Fuc(a1-6)]GlcNAc
# Summary of the method: as §1
binder,measurement,setting,value
"CC1G-11630 (Coprinopsis cinerea), A8P462 (protein) MTTEAKIKLKAVVYWELVFDYDNSSNTGEITQSYTVKISQTSTRSTFASEVSTTTIDTLTKNNQEVDVGASYGAISANVSASWEHSEEVNNMLEKTTQTSTEDTYTVETEETRSYTIGPGGMLSLFQKHFSGPGMHVAFDVFTTDLELAKERTEIDIDVDVEAIRFVREIRVVYTDIMSEAPGDHVREINGKNPDINYGFNGKFVWLVPEQTRKTAQALTNVEFVSQAESDDRYWDLAAGAGGSNRYLIPVYDTNNKDKIYELALWRSDSYITHDKVKAAGWSGTTGDINSGRGGTYLNLVWKTRHAY",glycan array binding signal (z-score),[1],-0.687
same,glycan array binding signal (z-score),[2],-0.485
same,glycan array binding signal (z-score),[3],1.01
same,glycan array binding signal (z-score),[4],-0.622
same,glycan array binding signal (z-score),[5],-0.497
same,glycan array binding signal (z-score),[6],0.411
same,glycan array binding signal (z-score),[7],-0.354
same,glycan array binding signal (z-score),[8],-0.605
same,glycan array binding signal (z-score),[9],-0.441
same,glycan array binding signal (z-score),[10],1.82
same,glycan array binding signal (z-score),Fuc(a1-2)Gal6S(b1-4)Glc,0.326
same,glycan array binding signal (z-score),[11],0.707
same,glycan array binding signal (z-score),Fuc(a1-2)[Gal(a1-3)]Gal,-0.113
same,glycan array binding signal (z-score),[12],-0.167
same,glycan array binding signal (z-score),[13],-0.296
same,glycan array binding signal (z-score),[14],0.172
same,glycan array binding signal (z-score),[15],-0.514
same,glycan array binding signal (z-score),[16],0.592
same,glycan array binding signal (z-score),[17],-0.115
same,glycan array binding signal (z-score),[18],-0.205
same,glycan array binding signal (z-score),[19],-0.429
same,glycan array binding signal (z-score),[20],-0.164
same,glycan array binding signal (z-score),[21],-0.591
same,glycan array binding signal (z-score),[22],-0.214
same,glycan array binding signal (z-score),[23],0.476
same,glycan array binding signal (z-score),[24],0.833
same,glycan array binding signal (z-score),[25],0.561
same,glycan array binding signal (z-score),[26],1.23
same,glycan array binding signal (z-score),[27],-0.641
same,glycan array binding signal (z-score),[28],-0.317
same,glycan array binding signal (z-score),[29],0.212
same,glycan array binding signal (z-score),[30],-0.763
same,glycan array binding signal (z-score),[31],-0.6
same,glycan array binding signal (z-score),[32],-0.196
same,glycan array binding signal (z-score),[33],-0.53
same,glycan array binding signal (z-score),[34],-0.752
same,glycan array binding signal (z-score),[35],-0.708
same,glycan array binding signal (z-score),[36],-0.174
